Consider 84 variants from the RNAGym collection of RNA variant scans (doi:10.1073/pnas.2313332121).

This sample is rich in variants without activity. Where only a bound is given, the exact number is not on record here.

B1: TPR 5TU (parent)
chain: GGAUCUUCUCGAUCUAACAAAAAAGACAAAUCUGCCACAAAGCUUGAGAGCAUCUUCGGAUGCAGAGGCGGCAGCCUUCGGUGGCGCGAUAGCGCCAACGUUCUCAACUAUGACACGCAAAACGCGUGCUCCGUUGAAUGGAGUUUAUCAUG

In this data set the parent is B1. The data set is described as follows: polymerase ribozyme fitness, log enrichment relative to wild type (log ratio); higher = more active; in vitro selection for triplet polymerase activity. A digest of the protocol: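 In triplicate, a single round of in vitro selection was run on each mutant library, PCR-built and transcribed, covering one subunit of a heterodimeric triplet polymerase ribozyme. Frozen incubation at −7 °C followed annealing with a biotinylated primer, partner subunit and triplets, and extended constructs were then gel-excised, streptavidin-captured and taken through RT-PCR. Fitness is the logarithm of genotype enrichment over wild-type enrichment, from inverse-variance-weighted replicate averages of Illumina-sequenced inputs and outputs. […] only genotypes with ≥10 input reads and ≥1 read per output were kept.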
With U6A A12U U15A C38A A40C C93G C95U A107C U144G U146A, the “polymerase ribozyme fitness (log ratio)” value was at most -4.2.

With C5U U9G A12C U33G G58A G88A A91G G94A A113C A121C, the “polymerase ribozyme fitness (log ratio)” value is at most -4.2.

As to U6G G11A A30C C76G U127A G133A, the “polymerase ribozyme fitness (log ratio)” value is at most -4.2.

Regarding C5U U31C C38U U44G A47C C85U U139C, the “polymerase ribozyme fitness (log ratio)” value is at most -4.2.

In the case of U6C C27U G50C A52G G58A C87U, the “polymerase ribozyme fitness (log ratio)” value was at most -4.2.

Take U6C A16G G25A C32A G94A A98U A106G U135G: the “polymerase ribozyme fitness (log ratio)” value is at most -4.2.

Consider U6C G48C G65A U78A G80A G88C A106G U127C G152U, for which the “polymerase ribozyme fitness (log ratio)” value was at most -4.2.

Consider C5U C43U U56G C57U G58U C69A C76U G80U C93A A106U C118A U151G, for which the “polymerase ribozyme fitness (log ratio)” value is at most -4.2.

Take U6G A29C C57A A60U A66G C95A A110C C114U: the “polymerase ribozyme fitness (log ratio)” value is at most -4.2.

On to U6A A21U A23G A26G C38G G62C G84U, for which the “polymerase ribozyme fitness (log ratio)” value is at most -4.2.

With U6A C57G A64G C76U C87A, the “polymerase ribozyme fitness (log ratio)” value is at most -4.2.

For the variant C5U G11U A24C C87A, the “polymerase ribozyme fitness (log ratio)” value was at most -4.2.

Regarding U6A A39G C75U G83U C118U A138G, the “polymerase ribozyme fitness (log ratio)” value is at most -4.2.

With U6A U13G C96A C105U, the “polymerase ribozyme fitness (log ratio)” value was -2.15.

As to U6C A30G C43A G83A C96G, the “polymerase ribozyme fitness (log ratio)” value was at most -4.2.

Regarding U6A A28C U53A U82G G86A U109C, the “polymerase ribozyme fitness (log ratio)” value was at most -4.2.

In the case of U6A A20C U31C C96A U127C, the “polymerase ribozyme fitness (log ratio)” value was -1.86.

Regarding U6A A39U U101G C118G, the “polymerase ribozyme fitness (log ratio)” value was at most -4.2.

U6C G46A U82A G83U C93U: the “polymerase ribozyme fitness (log ratio)” value is at most -4.2.

Regarding U6G G50U C85U C116U G152U, the “polymerase ribozyme fitness (log ratio)” value is -3.7.

As for U6A U53A G80C A106C C125U, the “polymerase ribozyme fitness (log ratio)” value was at most -4.2.

As to U6A A17G G50C G68A G80C C93G C96A U104G G140U A142C, the “polymerase ribozyme fitness (log ratio)” value is at most -4.2.

As to U6G G42A C69U U90G C95G, the “polymerase ribozyme fitness (log ratio)” value was at most -4.2.

As for U6C A16U C35G C57G G81U C85G A91U, the “polymerase ribozyme fitness (log ratio)” value is at most -4.2.

For U6G A24U A28C G88U C93G C116U G143C, the “polymerase ribozyme fitness (log ratio)” value was at most -4.2.

With U6G C51A G83C, the “polymerase ribozyme fitness (log ratio)” value was -2.97.

For U6C A23U C57A C72U C75G G94C, the “polymerase ribozyme fitness (log ratio)” value is at most -4.2.

For the variant U6C A19U A60C C87A A91U U134G, the “polymerase ribozyme fitness (log ratio)” value was at most -4.2.

Consider U6G G34U G84U U101G U151C, for which the “polymerase ribozyme fitness (log ratio)” value is at most -4.2.

In the case of U6G C18G A66C G68C G88C G152C, the “polymerase ribozyme fitness (log ratio)” value is at most -4.2.

Turning to C5U U78G U82G C95U A97G A121U G141U, the “polymerase ribozyme fitness (log ratio)” value is at most -4.2.

With U6G A39G A40C A47U U53A A97C C149A G152U, the “polymerase ribozyme fitness (log ratio)” value was at most -4.2.

With U6G G11A A19C A21C A24G C36G U56A G88C A138G, the “polymerase ribozyme fitness (log ratio)” value was at most -4.2.

Consider U6C U61A A73C C85G, for which the “polymerase ribozyme fitness (log ratio)” value was at most -4.2.

U6C A89G C96U U135C G140U: the “polymerase ribozyme fitness (log ratio)” value is at most -4.2.

As to U6G A39C G83C C85G A110C, the “polymerase ribozyme fitness (log ratio)” value is at most -4.2.

For the variant U6C A41G U56G G59A U61G C76A A91C C95G G124A, the “polymerase ribozyme fitness (log ratio)” value is at most -4.2.

For the variant U6G G11A G48U G50U A66G U90A G100U U102A A122C, the “polymerase ribozyme fitness (log ratio)” value was at most -4.2.

For the variant U6C C54G U55A G94A C132U, the “polymerase ribozyme fitness (log ratio)” value is at most -4.2.

Take C5U C51G G62A G74U C76G C95U C96U: the “polymerase ribozyme fitness (log ratio)” value is at most -4.2.

For C5U G50A C54A C76U G84U C95U C114U, the “polymerase ribozyme fitness (log ratio)” value was at most -4.2.

For U6C A52C U55A G83A U130G, the “polymerase ribozyme fitness (log ratio)” value is at most -4.2.

For U6G C10G, the “polymerase ribozyme fitness (log ratio)” value is -3.01.

On to U6A C57G C96U G141C, for which the “polymerase ribozyme fitness (log ratio)” value was -0.945.

With U6G A19G C38G C96A A106U, the “polymerase ribozyme fitness (log ratio)” value was -3.84.

Take U6G: the “polymerase ribozyme fitness (log ratio)” value turned out to be 0.0167.

U6A: the “polymerase ribozyme fitness (log ratio)” value is 0.197.

U6C: the “polymerase ribozyme fitness (log ratio)” value was -0.0891.

Take U6A G25U A29U C54A C87A A120G: the “polymerase ribozyme fitness (log ratio)” value was at most -4.2.

With U6A A28G G59A C93U C99G C108A G140A G141U, the “polymerase ribozyme fitness (log ratio)” value was at most -4.2.

In the case of U6G G59U U61A C72U A89G U90A C93G C108U A122U, the “polymerase ribozyme fitness (log ratio)” value was at most -4.2.

Regarding U6G G58A C87G G152U, the “polymerase ribozyme fitness (log ratio)” value was at most -4.2.

In the case of U6A A16C C27U U31G A52C C54G C118U, the “polymerase ribozyme fitness (log ratio)” value is at most -4.2.

For U6A A19C U56A G83A G124C, the “polymerase ribozyme fitness (log ratio)” value is -1.45.

Consider U6C C57G C87G, for which the “polymerase ribozyme fitness (log ratio)” value was at most -4.2.

Turning to U6A A49C A107U, the “polymerase ribozyme fitness (log ratio)” value is at most -4.2.

Take U6G C10G C14A A49C C85A C93U C116U: the “polymerase ribozyme fitness (log ratio)” value is at most -4.2.

Take U6A U15G A16U G74A U82G C95U: the “polymerase ribozyme fitness (log ratio)” value is at most -4.2.

With U6C A41C C79G, the “polymerase ribozyme fitness (log ratio)” value was at most -4.2.

Take U6A A17C C18G A89G C96G G136C: the “polymerase ribozyme fitness (log ratio)” value is at most -4.2.

With C5U C54U U82A C95G A147U, the “polymerase ribozyme fitness (log ratio)” value was -1.27.

As for U6C G83C A91C U145C, the “polymerase ribozyme fitness (log ratio)” value is at most -4.2.

Consider U6C A29U C85A U90G C95U, for which the “polymerase ribozyme fitness (log ratio)” value was at most -4.2.

As for U6C G70A C87U, the “polymerase ribozyme fitness (log ratio)” value was at most -4.2.

For U6G C8G A49C C54U A91G C96G G141A, the “polymerase ribozyme fitness (log ratio)” value is at most -4.2.

In the case of U6A A23C G25C C27U A30U C51A A73G C87U G88C, the “polymerase ribozyme fitness (log ratio)” value was at most -4.2.

Regarding U6G A12U A26G A40U C93U G124U, the “polymerase ribozyme fitness (log ratio)” value is at most -4.2.

For the variant U6C A23C G50A A60G U102C, the “polymerase ribozyme fitness (log ratio)” value is at most -4.2.

Take U6C U44A U56A U61C A91G U130A C132U A150C U151G: the “polymerase ribozyme fitness (log ratio)” value was at most -4.2.

Regarding U6G A40U G68A G92U G136U, the “polymerase ribozyme fitness (log ratio)” value was at most -4.2.

As for U6G A17C A23C C36G C57G C79A G81A G94C A97C A119C, the “polymerase ribozyme fitness (log ratio)” value was at most -4.2.

For U6G A23C G34U U56A A73U C87G, the “polymerase ribozyme fitness (log ratio)” value is at most -4.2.

In the case of C5U U7G C14G G88U U104G A150U, the “polymerase ribozyme fitness (log ratio)” value was at most -4.2.

Consider U6A C14A C35U C87A C116U A138G, for which the “polymerase ribozyme fitness (log ratio)” value is at most -4.2.

Consider U6C U90A C93A C99A G100C C103A C116G A147C, for which the “polymerase ribozyme fitness (log ratio)” value was at most -4.2.

Turning to C5U C43A, the “polymerase ribozyme fitness (log ratio)” value is at most -4.2.

In the case of U6C C35U G59A A66C G84U C93U A98U G100A A106C A142C, the “polymerase ribozyme fitness (log ratio)” value is at most -4.2.

On to U6A A47C G59U G81A C95G G141C, for which the “polymerase ribozyme fitness (log ratio)” value was at most -4.2.

On to U6G C85G A113U C125U U134G G141C, for which the “polymerase ribozyme fitness (log ratio)” value was at most -4.2.

For C5U C27G G58C G80A C87U C99U G100A C116G U134G A147G, the “polymerase ribozyme fitness (log ratio)” value is at most -4.2.

Consider C5U G68C U134G U144A, for which the “polymerase ribozyme fitness (log ratio)” value was at most -4.2.

For the variant U6A C36A G133C, the “polymerase ribozyme fitness (log ratio)” value was at most -4.2.

U6G C57G C76U G86U U130A A138G: the “polymerase ribozyme fitness (log ratio)” value was at most -4.2.

For the variant U6A G42C C123A, the “polymerase ribozyme fitness (log ratio)” value is at most -4.2.
